The IC50 is the midpoint of a concentration-inhibition curve.

A lower IC50 marks a more sensitive line; a fit beyond the top or the lowest dose is shown as a bound at that dose. AUC, from the same fit, is the share of area under the viability curve across the 256-fold dose range; the more sensitive the line, the further below 1. An inferred top dose was derived from the fitted curves, not read from the paper. For part of these data: An entry number marks a drug with two screens in the source, which often give different values. Bounds are passed on as bounds.

Compound in the first assay: O=C(c1cc(Cc2n[nH]c(=O)c3ccccc23)ccc1F)N1CCN(C(=O)C2CC2)CC1 [Olaparib]
As to the kind of experiment: Viability of human cancer cell lines after 72 h of drug (GDSC screen). The note with it: top dose 5 µM; screen: GDSC drug entry 1017; top dose inferred. Here is the method:
(§1)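 Human cancer cell lines in 384-well plates, medium with 10% serum, drug for 72 h over a 256-fold dose range (nine 2-fold or five 4-fold steps up to the top dose). Adherent lines were fixed and stained with the nucleic acid dye Syto60, suspension lines read with resazurin; signal relative to control wells, capped at 0 and 100%. One two-parameter sigmoid per drug and line, fitted in a mixed model over all curves with the slope shared within a line.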
As for L-1236 (Hodgkin lymphoma, suspension), the AUC is 0.992 and the IC50 was > 5 µM.

Staying with this assay, now noted: top dose 10 µM; screen: GDSC drug entry 1495.
On to HDLM-2 (Hodgkin lymphoma, suspension), for which the AUC turned out to be 0.949 and the IC50 was > 10 µM.
Consider HH (T-cell leukaemia, suspension), for which the AUC stood at 0.967 and the IC50 is > 10 µM.
Regarding HT (B-cell lymphoma, suspension), the AUC turned out to be 0.983 and the IC50 was > 10 µM.
Turning to IMR-5 (neuroblastoma, adherent), the AUC came out at 0.906 and the IC50 was found to be 9.83 µM.
For the cell line “IST-SL1 (small cell lung carcinoma, semi-adherent)”, the AUC came out at 0.964 and the IC50 was > 10 µM.
For JM1 (B-cell lymphoma, suspension), the AUC came out at 0.916 and the IC50 is > 10 µM.
In the case of JVM-2 (lymphoid neoplasm, suspension), the AUC was 0.908 and the half-inhibitory concentration (IC50) was > 10 µM.
For JVM-3 (lymphoid neoplasm, suspension), the AUC came to 0.899 and the half-maximal inhibitory concentration (IC50) was > 10 µM.
As for “JiyoyeP-2003 (Burkitt lymphoma, suspension)”, the AUC came out at 0.988 and the IC50 is > 10 µM.
Consider “KARPAS-45 (lymphoblastic leukaemia, suspension)”, for which the AUC worked out at 0.972 and the concentration for half-maximal inhibition (IC50) is > 10 µM.
For the cell line “KARPAS-299 (anaplastic large cell lymphoma, suspension)”, the AUC is 0.948 and the IC50 is > 10 µM.
In the same order, the values of “KARPAS-422 (B-cell lymphoma, suspension)” are 0.978 and > 10 µM.
Consider “KE-37 (lymphoblastic leukaemia, suspension)”, for which the AUC is 0.986 and the IC50 is > 10 µM.
For KM-H2 (Hodgkin lymphoma, suspension), the AUC amounted to 0.977 and the IC50 is > 10 µM.
For the cell line “KMOE-2 (acute myeloid leukaemia, suspension)”, the AUC was 0.981 and the half-inhibitory concentration (IC50) is > 10 µM.
In the case of KNS-81-FD (glioma, adherent), the AUC stood at 0.921 and the IC50 was > 10 µM.
For the cell line KS-1 (glioma, adherent), the AUC was determined as 0.738 and the IC50 came to 3.6 µM.
For the cell line “KU812 (chronic myeloid leukaemia, suspension)”, the AUC was determined as 0.935 and the IC50 was > 10 µM.
KY821 (leukaemia, suspension): the AUC amounted to 0.974 and the IC50 is > 10 µM.
With L-363 (myeloma, suspension), the AUC came out at 0.962 and the IC50 is > 10 µM.
L-540 (Hodgkin lymphoma, suspension): the AUC was 0.895 and the IC50 stood at 9.87 µM.
L-1236 (Hodgkin lymphoma, suspension): the AUC was 0.989 and the IC50 is > 10 µM.

Compound in another assay: NC(=O)c1ccc(N(C(N)=O)c2c(F)cccc2F)nc1-c1ccc(F)cc1F [VX-702]
Described as above. To be noted: top dose 2 µM; top dose inferred. Here is the method:
as §1
On to HDLM-2 (Hodgkin lymphoma, suspension), for which the AUC was determined as 0.969 and the IC50 is > 2 µM.
The matching figures for HH (T-cell leukaemia, suspension): 0.951 and > 2 µM.
The matching figures for HT (B-cell lymphoma, suspension): 0.988 and > 2 µM.
Take IMR-5 (neuroblastoma, adherent): the AUC is 0.989 and the IC50 was > 2 µM.
Take “IST-SL1 (small cell lung carcinoma, semi-adherent)”: the AUC is 0.979 and the IC50 is > 2 µM.
On to JM1 (B-cell lymphoma, suspension), for which the AUC turned out to be 0.987 and the IC50 is > 2 µM.
As to JVM-2 (lymphoid neoplasm, suspension), the AUC was 0.949 and the IC50 was > 2 µM.
For the cell line JVM-3 (lymphoid neoplasm, suspension), the AUC was 0.889 and the IC50 was > 2 µM.
“JiyoyeP-2003 (Burkitt lymphoma, suspension)”: the AUC came to 0.981 and the IC50 was > 2 µM.
In the same order, the values of “KARPAS-45 (lymphoblastic leukaemia, suspension)” are 0.982 and > 2 µM.
For “KARPAS-299 (anaplastic large cell lymphoma, suspension)”, the AUC turned out to be 0.983 and the IC50 is > 2 µM.
In the same order, the values of “KARPAS-422 (B-cell lymphoma, suspension)” are 0.975 and > 2 µM.
As for “KE-37 (lymphoblastic leukaemia, suspension)”, the AUC was 0.993 and the IC50 is > 2 µM.
Regarding KM-H2 (Hodgkin lymphoma, suspension), the AUC amounted to 0.987 and the IC50 was > 2 µM.
For “KMOE-2 (acute myeloid leukaemia, suspension)”, the AUC was found to be 0.983 and the IC50 is > 2 µM.
Take KNS-81-FD (glioma, adherent): the AUC is 0.943 and the IC50 is > 2 µM.
In the same order, the values of KS-1 (glioma, adherent) are 0.975 and > 2 µM.
In the case of “KU812 (chronic myeloid leukaemia, suspension)”, the AUC worked out at 0.958 and the IC50 is > 2 µM.
For the cell line KY821 (leukaemia, suspension), the AUC is 0.98 and the IC50 was > 2 µM.
For the cell line L-363 (myeloma, suspension), the AUC worked out at 0.928 and the IC50 was > 2 µM.
In the case of L-540 (Hodgkin lymphoma, suspension), the AUC came to 0.959 and the IC50 was > 2 µM.
The matching figures for L-1236 (Hodgkin lymphoma, suspension): 0.984 and > 2 µM.

Compound in the next assay: COc1cc(N2CCN(C)CC2)ccc1Nc1ncc2c(n1)N(C)c1ccccc1C(=O)N2C [XMD8-85]
Described as above. The note with it: top dose 8 µM; top dose inferred. How it is done:
as §1
With HDLM-2 (Hodgkin lymphoma, suspension), the AUC worked out at 0.939 and the 50% inhibitory concentration (IC50) was > 8 µM.
For the cell line HH (T-cell leukaemia, suspension), the AUC was 0.79 and the IC50 was found to be 4.93 µM.
Take HT (B-cell lymphoma, suspension): the AUC was 0.884 and the IC50 was 7.41 µM.
Regarding IMR-5 (neuroblastoma, adherent), the AUC was 0.885.
As to “IST-SL1 (small cell lung carcinoma, semi-adherent)”, the AUC was 0.926 and the IC50 was > 8 µM.
The matching figures for JM1 (B-cell lymphoma, suspension): 0.869 and 5.69 µM.
Take JVM-2 (lymphoid neoplasm, suspension): the AUC turned out to be 0.973 and the IC50 was > 8 µM.
The matching figures for JVM-3 (lymphoid neoplasm, suspension): 0.987 and > 8 µM.
“JiyoyeP-2003 (Burkitt lymphoma, suspension)”: the AUC stood at 0.885 and the IC50 is 6.86 µM.
As to “KARPAS-45 (lymphoblastic leukaemia, suspension)”, the AUC was determined as 0.832.
Take “KARPAS-299 (anaplastic large cell lymphoma, suspension)”: the AUC stood at 0.893 and the 50% inhibitory concentration (IC50) is 6.73 µM.
The matching figures for “KARPAS-422 (B-cell lymphoma, suspension)”: 0.886 and > 8 µM.
In the case of “KE-37 (lymphoblastic leukaemia, suspension)”, the AUC was 0.928 and the IC50 was determined as 7.78 µM.
The matching figures for KM-H2 (Hodgkin lymphoma, suspension): 0.991 and > 8 µM.
On to “KMOE-2 (acute myeloid leukaemia, suspension)”, for which the AUC amounted to 0.949 and the IC50 was > 8 µM.
Consider KNS-81-FD (glioma, adherent), for which the AUC was found to be 0.969 and the IC50 was > 8 µM.
Take KS-1 (glioma, adherent): the AUC is 0.811 and the 50% inhibitory concentration (IC50) was found to be 5.62 µM.
For the cell line “KU812 (chronic myeloid leukaemia, suspension)”, the AUC amounted to 0.865 and the IC50 was found to be 6.07 µM.
For the cell line KY821 (leukaemia, suspension), the AUC was found to be 0.96 and the half-maximal inhibitory concentration (IC50) was > 8 µM.
Take L-363 (myeloma, suspension): the AUC was 0.888 and the half-maximal inhibitory concentration (IC50) was 6.87 µM.
Regarding L-540 (Hodgkin lymphoma, suspension), the AUC was 0.876 and the IC50 amounted to 6.46 µM.
Consider L-1236 (Hodgkin lymphoma, suspension), for which the AUC came to 0.853 and the IC50 was 4.8 µM.
